Experimental data as given in the supplement of paper PMC8728848.
Some of the results follow.

Experiments:
Experiment in all cases: glycan array binding signal (z-score within array); higher = stronger binding
Settings in all cases: glycan notation: IUPAC condensed, linker removed
[1] = target: Neu5Ac(a2-3)Gal(b1-4)[Fuc(a1-3)]GlcNAc(b1-6)[Gal(b1-3)]GalNAc
In short: (§1)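 From the Consortium for Functional Glycomics database, 3228 arrays were curated, keeping only those whose protein sequence was available. Binding is given as a within-array Z-score averaged across arrays sharing a protein sequence and across linkers. Negative Z-scores can be read as non-binding.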

[2] = target: Neu5Ac(a2-3)Gal(b1-4)[Fuc(a1-3)]GlcNAc(b1-6)[Neu5Ac(a2-3)Gal(b1-3)]GalNAc
In short: as §1

[3] = target: Neu5Ac(a2-3)Gal(b1-4)[Fuc(a1-3)]GlcNAc6S
In short: as §1

[4] = target: Neu5Ac(a2-3)Gal6S(b1-4)GlcNAc
In short: as §1

[5] = target: Neu5Ac(a2-3)Gal6S(b1-4)[Fuc(a1-3)]GlcNAc
In short: as §1

[6] = target: Neu5Ac(a2-3)GalNAc
In short: as §1

[7] = target: Neu5Ac(a2-3)GalNAc(b1-4)GlcNAc
In short: as §1

[8] = target: Neu5Ac(a2-3)[GalNAc(b1-4)]Gal(b1-4)Glc
In short: as §1

[9] = target: Neu5Ac(a2-3)[GalNAc(b1-4)]Gal(b1-4)GlcNAc
In short: as §1

[10] = target: Neu5Ac(a2-3)[GalNAc(b1-4)]Gal(b1-4)GlcNAc(b1-3)GalNAc
In short: as §1

[11] = target: Neu5Ac(a2-3)[Neu5Ac(a2-6)]GalNAc
In short: as §1

[12] = target: Neu5Ac(a2-6)Gal
In short: as §1

[13] = target: Neu5Ac(a2-6)Gal(b1-3)GlcNAc(b1-3)[Gal(b1-4)GlcNAc(b1-6)]Gal(b1-4)Glc
In short: as §1

[14] = target: Neu5Ac(a2-6)Gal(b1-4)Glc
In short: as §1

[15] = target: Neu5Ac(a2-6)Gal(b1-4)GlcNAc
In short: as §1

[16] = target: Neu5Ac(a2-6)Gal(b1-4)GlcNAc(b1-2)Man
In short: as §1

[17] = target: Neu5Ac(a2-6)Gal(b1-4)GlcNAc(b1-2)Man(a1-3)Man(b1-4)GlcNAc(b1-4)GlcNAc
In short: as §1

[18] = target: Neu5Ac(a2-6)Gal(b1-4)GlcNAc(b1-2)Man(a1-3)[Gal(b1-4)GlcNAc(b1-2)Man(a1-6)]Man(b1-4)GlcNAc(b1-4)GlcNAc
In short: as §1

[19] = target: Neu5Ac(a2-6)Gal(b1-4)GlcNAc(b1-2)Man(a1-3)[GlcNAc(b1-2)Man(a1-6)]Man(b1-4)GlcNAc(b1-4)GlcNAc
In short: as §1

[20] = target: Neu5Ac(a2-6)Gal(b1-4)GlcNAc(b1-2)Man(a1-3)[GlcNAc(b1-4)][Neu5Ac(a2-6)Gal(b1-4)GlcNAc(b1-2)Man(a1-6)]Man(b1-4)GlcNAc(b1-4)GlcNAc
In short: as §1

[21] = target: Neu5Ac(a2-6)Gal(b1-4)GlcNAc(b1-2)Man(a1-3)[Man(a1-6)]Man(b1-4)GlcNAc(b1-4)GlcNAc
In short: as §1

[22] = target: Neu5Ac(a2-6)Gal(b1-4)GlcNAc(b1-2)Man(a1-3)[Neu5Ac(a2-3)Gal(b1-4)GlcNAc(b1-2)Man(a1-6)]Man(b1-4)GlcNAc(b1-4)GlcNAc
In short: as §1

[23] = target: Neu5Ac(a2-6)Gal(b1-4)GlcNAc(b1-2)Man(a1-3)[Neu5Ac(a2-6)Gal(b1-4)GlcNAc(b1-2)Man(a1-6)]Man(b1-4)GlcNAc(b1-4)GlcNAc
In short: as §1

[24] = target: Neu5Ac(a2-6)Gal(b1-4)GlcNAc(b1-2)Man(a1-3)[Neu5Ac(a2-6)Gal(b1-4)GlcNAc(b1-2)Man(a1-6)]Man(b1-4)GlcNAc(b1-4)[Fuc(a1-6)]GlcNAc
In short: as §1

[25] = target: Neu5Ac(a2-6)Gal(b1-4)GlcNAc(b1-2)Man(a1-6)Man(b1-4)GlcNAc(b1-4)GlcNAc
In short: as §1

[26] = target: Neu5Ac(a2-6)Gal(b1-4)GlcNAc(b1-2)Man(a1-6)[Gal(b1-4)GlcNAc(b1-2)Man(a1-3)]Man(b1-4)GlcNAc(b1-4)GlcNAc
In short: as §1

[27] = target: Neu5Ac(a2-6)Gal(b1-4)GlcNAc(b1-2)Man(a1-6)[GlcNAc(b1-2)Man(a1-3)]Man(b1-4)GlcNAc(b1-4)GlcNAc
In short: as §1

[28] = target: Neu5Ac(a2-6)Gal(b1-4)GlcNAc(b1-2)Man(a1-6)[Man(a1-3)]Man(b1-4)GlcNAc(b1-4)GlcNAc
In short: as §1

[29] = target: Neu5Ac(a2-6)Gal(b1-4)GlcNAc(b1-2)[Neu5Ac(a2-6)Gal(b1-4)GlcNAc(b1-4)]Man(a1-3)[GlcNAc(b1-4)][Neu5Ac(a2-6)Gal(b1-4)GlcNAc(b1-2)[Neu5Ac(a2-6)Gal(b1-4)GlcNAc(b1-6)]Man(a1-6)]Man(b1-4)GlcNAc(b1-4)GlcNAc
In short: as §1

[30] = target: Neu5Ac(a2-6)Gal(b1-4)GlcNAc(b1-2)[Neu5Ac(a2-6)Gal(b1-4)GlcNAc(b1-4)]Man(a1-3)[GlcNAc(b1-4)][Neu5Ac(a2-6)Gal(b1-4)GlcNAc(b1-4)Man(a1-6)]Man(b1-4)GlcNAc(b1-4)GlcNAc
In short: as §1

[31] = target: Neu5Ac(a2-6)Gal(b1-4)GlcNAc(b1-2)[Neu5Ac(a2-6)Gal(b1-4)GlcNAc(b1-6)]Man(a1-6)[Neu5Ac(a2-6)Gal(b1-4)GlcNAc(b1-2)Man(a1-3)][GlcNAc(b1-4)]Man(b1-4)GlcNAc(b1-4)GlcNAc
In short: as §1

[32] = target: Neu5Ac(a2-6)Gal(b1-4)GlcNAc(b1-3)Gal(b1-3)GlcNAc
In short: as §1

[33] = target: Neu5Ac(a2-6)Gal(b1-4)GlcNAc(b1-3)Gal(b1-4)GlcNAc
In short: as §1

[34] = target: Neu5Ac(a2-6)Gal(b1-4)GlcNAc(b1-3)Gal(b1-4)GlcNAc(b1-2)Man(a1-3)[Neu5Ac(a2-6)Gal(b1-4)GlcNAc(b1-3)Gal(b1-4)GlcNAc(b1-2)Man(a1-6)]GalNAc
In short: as §1

[35] = target: Neu5Ac(a2-6)Gal(b1-4)GlcNAc(b1-3)Gal(b1-4)GlcNAc(b1-3)Gal(b1-4)GlcNAc
In short: as §1

[36] = target: Neu5Ac(a2-6)Gal(b1-4)GlcNAc(b1-3)Gal(b1-4)GlcNAc(b1-3)Gal(b1-4)GlcNAc(b1-2)Man(a1-3)[Neu5Ac(a2-6)Gal(b1-4)GlcNAc(b1-3)Gal(b1-4)GlcNAc(b1-3)Gal(b1-4)GlcNAc(b1-2)Man(a1-6)]GalNAc
In short: as §1

[37] = target: Neu5Ac(a2-6)Gal(b1-4)GlcNAc(b1-3)Gal(b1-4)GlcNAc(b1-3)GalNAc
In short: as §1

[38] = target: Neu5Ac(a2-6)Gal(b1-4)GlcNAc(b1-3)Gal(b1-4)GlcNAc(b1-3)[Neu5Ac(a2-6)Gal(b1-4)GlcNAc(b1-3)Gal(b1-4)GlcNAc(b1-6)]GalNAc
In short: as §1

[39] = target: Neu5Ac(a2-6)Gal(b1-4)GlcNAc(b1-3)Gal(b1-4)GlcNAc(b1-6)[Gal(b1-3)]GalNAc
In short: as §1

[40] = target: Neu5Ac(a2-6)Gal(b1-4)GlcNAc(b1-3)Gal(b1-4)[Fuc(a1-3)]GlcNAc(b1-3)Gal(b1-4)[Fuc(a1-3)]GlcNAc
In short: as §1

[41] = target: Neu5Ac(a2-6)Gal(b1-4)GlcNAc(b1-3)GalNAc
In short: as §1

B1: ABA (Agaricus bisporus), Q00022 (protein)
chain: MTYTISIRVYQTTPKGFFRPVERTNWKYANGGTWDEVRGEYVLTMGGSGTSGSLRFVSSDTDESFVATFGVHNYKRWCDIVTNLTNEQTALVINQEYYGVPIRDQARENQLTSYNVANAKGRRFAIEYTVTEGDNLKANLIIG
[1]
  glycan array binding signal (z-score): -0.199
[2]
  glycan array binding signal (z-score): -0.22
[3]
  glycan array binding signal (z-score): -0.286
[4]
  glycan array binding signal (z-score): -0.232
[5]
  glycan array binding signal (z-score): -0.264
[6]
  glycan array binding signal (z-score): -0.259
[7]
  glycan array binding signal (z-score): -0.276
[8]
  glycan array binding signal (z-score): -0.249
[9]
  glycan array binding signal (z-score): -0.198
[10]
  glycan array binding signal (z-score): 1.31
[11]
  glycan array binding signal (z-score): -0.256
[12]
  glycan array binding signal (z-score): -0.234
[13]
  glycan array binding signal (z-score): -0.205
[14]
  glycan array binding signal (z-score): -0.228
[15]
  glycan array binding signal (z-score): -0.208
[16]
  glycan array binding signal (z-score): -0.097
[17]
  glycan array binding signal (z-score): -0.228
[18]
  glycan array binding signal (z-score): -0.223
[19]
  glycan array binding signal (z-score): -0.037
[20]
  glycan array binding signal (z-score): -0.291
[21]
  glycan array binding signal (z-score): -0.24
[22]
  glycan array binding signal (z-score): -0.256
[23]
  glycan array binding signal (z-score): -0.211
[24]
  glycan array binding signal (z-score): -0.277
[25]
  glycan array binding signal (z-score): -0.243
[26]
  glycan array binding signal (z-score): -0.295
[27]
  glycan array binding signal (z-score): 1.83
[28]
  glycan array binding signal (z-score): -0.281
[29]
  glycan array binding signal (z-score): -0.266
[30]
  glycan array binding signal (z-score): -0.249
[31]
  glycan array binding signal (z-score): -0.262
[32]
  glycan array binding signal (z-score): -0.209
[33]
  glycan array binding signal (z-score): -0.198
[34]
  glycan array binding signal (z-score): -0.193
[35]
  glycan array binding signal (z-score): -0.265
[36]
  glycan array binding signal (z-score): 0.531
[37]
  glycan array binding signal (z-score): -0.201
[38]
  glycan array binding signal (z-score): 2.26
[39]
  glycan array binding signal (z-score): 0.324
[40]
  glycan array binding signal (z-score): -0.241
[41]
  glycan array binding signal (z-score): -0.181
